Test results from PubChem BioAssay AID504832 (National Center for Advancing Translational Sciences (NCATS), 2011).
Out of some 310,000 compounds screened, about 18,000 (5.8%) were called active. The shares of active, inactive and inconclusive entries below differ from those in the screen. The call rests on the fitted dose curve; in most records, active means well fitted inhibition curve with a large enough effect; inconclusive means small, poorly fitted or top-dose-only effect, or another doubt; inactive means no such curve, though single readings can be large or run the other way. No potency is given beside an inconclusive call; the fits are too rough.

test: Primary qHTS for delayed death inhibitors of the malarial parasite plastid, 48 hour incubation; conditions: P. falciparum luciferase growth in erythrocytes; series mostly up to 28.7 µM; activity change, negative = inhibition: at the top concentration
Procedure, shortened: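 Luminescence readout; reporter = integrated firefly luciferase in P. falciparum. RBC culture at 2% hematocrit, 0.1% parasitemia final, 37 C/5% CO2; decreased signal taken as growth inhibition.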
On the % scale 0 is the no-effect control and ±100 the full control effect; potency means the concentration at half of the fitted maximal effect; tags describe the fitted curve by direction and shape.

| Compound | Potency | activity change, negative = inhibition |
| --- | --- | --- |
| C[N+]1(CC(=O)OCCCC2CCCCC2)CCCC1 | inconclusive [inhibitor, single point] |  |
| CCOc1ccc(NC(=S)NC2CC3CCC(C2)N3Cc2ccco2)cc1 (centres undefined) | inconclusive [inhibitor, single point] |  |
| COc1cc(OC)c(OC)cc1CN(C)CC1CCCN(CCc2ccccc2F)C1 (centres undefined) | inconclusive [inhibitor, single point] |  |
| CCN(CCCNC(=O)C1CCN(S(=O)(=O)N2CCOCC2)CC1)c1cccc(C)c1 | inconclusive [inhibitor, full curve, poor fit] |  |
| CCOC(=O)c1cnc(SCc2nc(N)nc(Nc3ccc(C)cc3)n2)nc1N | inconclusive [inhibitor, single point] |  |
| Cc1ccc(OCc2cc(C(=O)NC(C)Cc3cccnc3)no2)cc1C (centres undefined) |  | inactive: -1.32% |
| O=C(O)c1cccc(NC2=C(n3nnc4ccccc43)C(=O)c3ccccc3C2=O)c1 | active: 5.22 µM |  |
| Cc1nnc(SCC(=O)NCC2COc3ccccc3O2)s1 (centres undefined) | inconclusive [inhibitor, single point] |  |
| Cc1cccc(Sc2nc(-c3ccccc3)ccc2C#N)c1 |  | inactive: -12.9% |
| CC1CCN(c2oc(-c3ccccc3Cl)nc2C#N)CC1 |  | inactive: 75.2% |
| CCOc1ccccc1C(=O)Nc1ccc(S(=O)(=O)Nc2nccc(C)n2)cc1 |  | inactive: -10.1% |
| CCN(CC)S(=O)(=O)c1cc(OC)c(C)cc1C |  | inactive: 21.5% [at 1.15 µM] |
| O=C(N/N=C/c1ccccc1C(F)(F)F)c1ccc2nc[nH]c2c1 | inconclusive [inhibitor, full curve] |  |
| CCOC(=O)c1c(C)[nH]c(C(=O)OCC(=O)N2c3ccccc3CC2C)c1C (centres undefined) | inconclusive [inhibitor, single point] |  |
| COc1ccc(S(=O)(=O)N2CCCCC2)cc1NC(=O)Cc1c[nH]c2ccccc12 | inconclusive [inhibitor, partial curve, poor fit] |  |
| Cc1nn(C)c(Cl)c1CN1CCCC(C(=O)Nc2cccc(-n3cccn3)c2)C1 (centres undefined) | inconclusive [inhibitor, single point] |  |
| COc1ccc(CCNC(=O)C(=O)NCC2OCCN2S(=O)(=O)c2cc(F)ccc2F)cc1 (centres undefined) | inconclusive [inhibitor, single point] |  |
| O=C(O)C1CC=C(Cl)CC1C(=O)NCc1ccccc1 (centres undefined) |  | inactive: 1.48% |
| CCCCSC1(SCCCC)N=C(N)C2(C#N)C(c3ccccc3)NC(C)=CC12C#N (centres undefined) | inconclusive [inhibitor, single point] |  |
| COc1ccc(OC)c(S(=O)(=O)N2CCN(C(=O)c3ccco3)CC2)c1 | inconclusive [inhibitor, partial curve, poor fit] |  |
| COC(=O)[C@@H]1C[C@H]2CC[C@H](O)C[C@H]2N1Cc1ccc(Cl)cc1 | inconclusive [inhibitor, single point] |  |
| CCCC[C@@H](CN[C@H](C)CNC)NCC1CCC(C(C)(C)C)CC1 (some centres undefined) | inconclusive [inhibitor, partial curve, poor fit] |  |
| C=C1SC(=Nc2ccccc2Cl)N(C(=O)c2sc3ccccc3c2Cl)C1(C)C | inconclusive [inhibitor, single point] |  |

| Compound | Potency | activity change, negative = inhibition |
| --- | --- | --- |
| CC(=O)c1ccc(N(CC(=O)NCCc2ccccc2)C(=O)c2csnn2)cc1 | inconclusive [inhibitor, partial curve] |  |
| O=C(N/N=C/c1ccc2cccc(OCc3ccccc3)c2n1)c1ccc(Br)cc1 |  | inactive: -21.6% |
| CC1Sc2ccc(S(=O)(=O)CCC(=O)N3CCN(c4cccc(Cl)c4)CC3)cc2NC1=O (centres undefined) | inconclusive [inhibitor, single point] |  |
| O=S(=O)(NC1CCCC1)c1cc(F)ccc1F | inconclusive [inhibitor, partial curve, poor fit] |  |
| CC(C)(O)C#Cc1ccc(CN2CCN(C3CCCCC3)C(CCO)C2)s1 (centres undefined) | inconclusive [inhibitor, partial curve, poor fit] |  |
| NNC(=O)c1oc2nc(-c3ccccc3)cc(-c3ccco3)c2c1N | inconclusive [inhibitor, single point] |  |
| CCN(CC(=O)Nc1ccc2c(c1)OCCO2)C(=O)c1ccc(C)c(S(=O)(=O)N2CCOCC2)c1 | inconclusive [inhibitor, single point] |  |
| Cc1ccc(C)c(OCC(O)CN2CCC(Cc3ccccc3)CC2)c1 (centres undefined) | active: 7.38 µM |  |
| O=C(CN1CCOCC1)Nc1cc(C(F)(F)F)ccc1Cl | inconclusive [inhibitor, single point] |  |
| O=C(Cc1cccc2ccccc12)NCCc1ccccc1 |  | inactive: -27% |
| Cn1c(SCc2ccc(C(C)(C)C)cc2)nnc1C1COc2ccccc2O1 (centres undefined) | inconclusive [inhibitor, single point] |  |
| CC(=O)c1ccc(NC(=O)Nc2cccc3ccccc23)cc1 |  | inactive: 13.5% |
| CN(C)CCCNc1ncnc2c1cnn2Cc1ccccc1Cl |  | inactive: -6.87% |
| CN(C)S(=O)(=O)c1cccc(NC(=O)c2cc(-c3cccs3)nc3ccccc23)c1 |  | inactive: 6.63% |
| Fc1ccccc1CSc1nnc(-c2cnccn2)n1Cc1ccco1 | inconclusive [inhibitor, single point] |  |
| CCOC(=O)C1=C(C)NC(=O)NC1c1ccc(OC)c(Cl)c1 (centres undefined) | inconclusive [inhibitor, single point] |  |
| Cc1cc(OCC(=O)N2CCOCC2)ccc1NC(=O)C1CCCCC1 |  | inactive: 10.9% |
| CCOc1ccccc1N1CCN(C(=S)NCc2ccccc2)CC1 | inconclusive [inhibitor, partial curve, poor fit] |  |
| Cc1nc(C)c(C(=O)NNS(=O)(=O)c2ccc([N+](=O)[O-])cc2)s1 |  | inactive: 11.9% |
| COC(=O)/C(=C1/Oc2cc(C)oc(=O)c2S1)C(F)(F)F | inconclusive [inhibitor, single point] |  |
| CCN1CCCC1CNC(=O)CCc1nc(-c2ccc(C)cc2)no1 (centres undefined) | inconclusive [inhibitor, full curve, poor fit] |  |
| Cc1c(C(=O)NCc2cccnc2)oc2ccc(S(=O)(=O)N3CC(C)CC(C)C3)cc12 (centres undefined) | inconclusive [inhibitor, partial curve, poor fit] |  |
| CCCn1c(N2CCN(C(=O)Nc3ccc(Cl)cc3)CC2)nc2ccccc21 | inconclusive [inhibitor, partial curve, poor fit] |  |

| Compound | Potency | activity change, negative = inhibition |
| --- | --- | --- |
| COc1ccccc1OCC(=O)Nc1ccc(Cl)cc1C(=O)c1ccccc1 | inconclusive [inhibitor, single point] |  |
| CC(C1CC1)N(C(=O)NC1CCS(=O)(=O)C1)c1ccccc1 (centres undefined) |  | inactive: -2.53% |
| Cc1ccc2c(Cl)cc(Cl)c(OCC(=O)NC(C)(C)C)c2n1 | active: 11.7 µM |  |
| O=C(Nc1cccc(S(=O)(=O)N2CCCCC2)c1)C1=NN(c2ccccc2)C(=O)CC1 | active: 5.22 µM |  |
| C=CCc1cccc2cc(C(=O)OCC(=O)c3ccccc3)c(=O)oc12 |  | inactive: 11.5% |
| CCc1ccc(NC(=O)CCc2nc3sc4c(c3c(=O)[nH]2)CCCC4)cc1 | inconclusive [inhibitor, single point] |  |
| Cc1cccc(C)c1NC(=S)NCCSc1ccc(Cl)cc1 |  | inactive: -28.8% |
| Cc1ccc(C)c(/C=C/C(=O)c2ccccc(=O)c2O)c1 | active: 4.15 µM |  |
| Cc1cc(C)c(NC(=O)CNC(=O)CSc2nnc(N)s2)c(C)c1 |  | inactive: -22.9% |
| Cc1ccc2c(c1)NC(=O)[C@@]1(C)[C@@H](c3ccccc3)[C@H]3COc4ccccc4[C@@H]3N1C2=O | inconclusive [inhibitor, single point] |  |
| NNc1nc(-c2ccccc2)c2cc(Cl)ccc2n1 | inconclusive [inhibitor, single point] |  |
| O=c1c2c([nH]c3ccccc13)C(=C1CCCC1)CC2 | active: 13.1 µM |  |
| CCOC(=O)C1(CCOc2ccccc2)CCN(Cc2ccc(O)c(Cl)c2)CC1 | inconclusive [inhibitor, full curve, poor fit] |  |
| CC(=O)N1CCN(S(=O)(=O)c2cccc(C(=O)N(Cc3ccccc3)c3cccc(C)c3)c2)CC1 | inconclusive [inhibitor, partial curve] |  |
| O=C(Nc1ncc(Cc2cccc(C(F)(F)F)c2)s1)c1ccc(-c2cccc([N+](=O)[O-])c2)o1 | inconclusive [inhibitor, single point] |  |
| C=CCNc1nnc(Cc2ccc(C(C)C)cc2)c(=O)[nH]1 | inconclusive [inhibitor, partial curve] |  |
| O=C(CSc1ccccn1)N1CCN(c2ccccc2)CC1 |  | inactive: 33.3% |
| Cc1cc(S(N)(=O)=O)c(N)c(S(N)(=O)=O)c1 | inconclusive [inhibitor, single point] |  |
| CC(C)(C)OC(=O)N/N=C/c1ccc(C(=O)O)cc1 | inconclusive [inhibitor, single point] |  |
| Cc1cc(-c2cc(C(=O)NCc3ccccc3)on2)nc(NC2CCCC2)n1 | inconclusive [inhibitor, single point] |  |
| Cc1ccc(-c2nnc(NC(=O)c3ccco3)o2)c(C)c1 | inconclusive [inhibitor, partial curve, poor fit] |  |
| CSc1nnc2n(-c3ccccc3)c(=O)c3c4c(sc3n12)CCC4 | inconclusive [inhibitor, single point] |  |
| CC(=O)c1c(C)[nH]c(C(=O)OCC(=O)NCCc2ccc(F)cc2)c1C | inconclusive [inhibitor, single point] |  |
